The supplement of paper PMC12217912
The list shows a part of the results. Sequences were assembled here from the parent chain. Values near 0.05 are background.

B1: TEV protease; numbered along this chain (parent)
chain: MGESLFKGPRDYNPISSSICHLTNESDGHTTSLYGIGFGPFIITNKHLFRRNNGTLVVQSLHGVFKVKDTTTLQQHLVDGRDMIIIRMPKDFPPFPQKLKFREPQREERICLVTTNFQTKSMSSMVSDTSCTFPSGDGIFWKHWIQTKDGQCGSPLVSTRDGFIVGIHSASNFTNTNNYFTSVPKNFMELLTNQEAQQWVSGWRLNADSVLWGGHKVFMVKPEEPFQPVKEATQL

Variants of: B1
Assay: raw area under fraction-flipped curve 0-4 h after induction (AUC4h, not background-subtracted), DNA-recorder readout of cleavage of the substrate (dimensionless); higher = more cleavage of the substrate by the protease variant
Conditions: temperature: 34 °C; time window: 0-4 h after rhamnose induction
Method: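 In vivo DNA recorder in E. coli TOP10(DE3) ΔrhaA at 34 °C. Each TEVp single-site mutant (parent TEVp 0) is paired with a single-site variant of the 7-mer TEVs (canonical ENLYFQ|S). The substrate sits between flexible linkers in a Bxb1-sfGFP-TEVs-SsrA fusion, so cleavage stabilises Bxb1 and speeds flipping of a recombination array, read by NGS. The value is the raw area under the fraction-flipped curve over 0-4 h after rhamnose induction (AUC4h), with ≥20 reads per time point. It is not background-subtracted; inactive controls average about 0.047.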
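Also: Bxb1 expression induced with 0.2% (w/v) L-rhamnose at OD600 near 0.5, cultures sampled hourly, flipped fraction per protease–substrate barcode pair counted by paired-end Illumina sequencing.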

Row | Variant | area with substrate CNLYFQS | area with substrate DNLYFQS | area with substrate FNLYFQS | area with substrate GNLYFQS | area with substrate HNLYFQS | area with substrate INLYFQS | area with substrate KNLYFQS | area with substrate LNLYFQS | area with substrate NNLYFQS | area with substrate PNLYFQS | area with substrate SNLYFQS | area with substrate VNLYFQS | area with substrate WNLYFQS | area with substrate YNLYFQS | area with substrate MNLYFQS | area with substrate QNLYFQS | area with substrate TNLYFQS | area with substrate RNLYFQS
1 | T30Q | 0.0785 | 0.0727 | 0.0575 | 0.0691 | 0.0591 | 0.0651 | 0.0671 | 0.0668 | 0.0671 | 0.0612 | 0.0678 | 0.0713 | 0.0572 | 0.0664 | – | – | – | –
2 | T30N | 0.116 | 0.0711 | 0.0667 | – | 0.0647 | – | 0.071 | 0.0554 | – | 0.0646 | – | 0.0719 | 0.0593 | – | 0.0787 | 0.0448 | 0.0666 | –
3 | P14G | 0.0865 | 0.0757 | – | 0.0608 | 0.055 | 0.0709 | 0.044 | 0.0577 | – | – | – | 0.0733 | 0.068 | 0.0622 | 0.0777 | – | 0.0697 | –
4 | P14N | 0.0549 | 0.0631 | – | 0.0609 | 0.0387 | 0.0369 | 0.0538 | 0.0263 | 0.0513 | 0.0561 | – | – | 0.0687 | 0.0585 | 0.0697 | – | 0.0663 | –
5 | P14D | 0.0895 | 0.0765 | 0.0618 | 0.0633 | 0.0418 | 0.0596 | 0.0642 | 0.0108 | – | 0.033 | 0.0704 | – | 0.0503 | 0.0641 | – | – | 0.0677 | –
6 | F6V | 0.0703 | 0.0928 | 0.0641 | – | 0.0846 | – | – | 0.0914 | – | 0.0593 | 0.0755 | 0.0807 | 0.0741 | 0.0504 | – | 0.0669 | 0.0728 | –
7 | F6Y | 0.063 | 0.0825 | 0.0537 | – | 0.044 | – | 0.063 | – | – | 0.0756 | – | 0.0608 | 0.0449 | 0.0602 | – | – | – | –
8 | F6M | 0.0643 | 0.0751 | 0.0643 | 0.0638 | 0.0914 | 0.067 | – | 0.0601 | – | 0.0655 | 0.0578 | 0.0666 | 0.0535 | 0.0827 | – | 0.0676 | – | –
9 | F6Q | 0.0684 | 0.0629 | – | 0.076 | – | – | 0.0814 | 0.0698 | – | 0.0668 | 0.062 | – | 0.0611 | – | 0.0715 | – | – | –
10 | S18E | 0.0664 | 0.0816 | – | – | 0.0756 | – | 0.0633 | 0.0581 | – | 0.0709 | 0.0708 | – | 0.0499 | 0.058 | 0.0574 | – | 0.0487 | –
11 | S18W | 0.0718 | 0.0711 | 0.0598 | 0.058 | 0.0801 | 0.039 | 0.065 | 0.0643 | 0.0608 | 0.0767 | 0.0419 | 0.0447 | 0.0582 | 0.0614 | 0.0754 | 0.035 | 0.0664 | –
12 | D11G | 0.0913 | 0.0895 | – | – | 0.0666 | – | 0.0698 | 0.0579 | 0.0657 | 0.0779 | – | 0.0638 | 0.071 | 0.066 | 0.0694 | – | 0.0681 | 0.0566
13 | D11H | 0.0999 | 0.0568 | 0.0579 | – | 0.0762 | – | 0.0687 | – | – | 0.0854 | 0.0574 | – | 0.0621 | 0.0643 | 0.0619 | – | 0.0458 | 0.0634
14 | D11N | 0.0702 | 0.074 | 0.0716 | – | 0.0686 | 0.086 | 0.0654 | 0.0688 | – | – | 0.0424 | 0.0753 | 0.0605 | – | – | 0.0316 | 0.0798 | –
15 | D11Y | 0.0615 | 0.0795 | 0.0672 | 0.0799 | 0.0807 | 0.094 | 0.0746 | 0.0638 | – | 0.0652 | 0.0587 | 0.0708 | 0.0586 | 0.059 | 0.0696 | 0.0926 | 0.0699 | 0.0491
16 | G28F | 0.053 | 0.0768 | – | 0.0629 | – | 0.0541 | – | 0.0782 | 0.0749 | 0.0623 | – | 0.0697 | 0.0066 | – | 0.0676 | – | 0.0592 | –
17 | G28K | 0.0614 | 0.059 | – | – | – | 0.0684 | 0.0541 | 0.0513 | 0.0743 | 0.0574 | 0.0686 | 0.0554 | 0.0606 | – | – | 0.0334 | 0.0578 | –
18 | G2D | 0.0764 | 0.0807 | – | 0.076 | 0.0649 | 0.0999 | 0.0865 | 0.0536 | – | 0.0645 | 0.0653 | – | 0.0489 | 0.0687 | 0.0739 | – | 0.0795 | –
19 | I19M | 0.0709 | 0.0799 | 0.0594 | – | 0.0679 | – | 0.0817 | 0.0663 | 0.0733 | 0.0817 | 0.0794 | – | 0.0561 | 0.065 | – | 0.0922 | 0.0645 | 0.053
20 | I19N | 0.0574 | 0.0528 | 0.0516 | 0.0576 | 0.0596 | 0.0558 | 0.056 | 0.0369 | 0.0351 | 0.0524 | 0.0392 | 0.0561 | 0.049 | 0.0479 | – | 0.0502 | 0.0559 | –
21 | I19S | 0.0405 | 0.0791 | 0.023 | 0.051 | 0.0644 | – | – | – | 0.0326 | 0.0716 | 0.0573 | 0.0669 | 0.0421 | – | 0.051 | – | 0.0583 | –
22 | L22N | 0.0411 | 0.046 | 0.0489 | 0.0561 | 0.0414 | 0.056 | – | 0.0376 | – | 0.0515 | – | – | 0.0537 | 0.0314 | – | – | 0.0415 | –
23 | N24M | 0.0462 | – | – | – | 0.0691 | 0.0691 | 0.0341 | 0.0754 | 0.05 | 0.0755 | 0.0645 | – | 0.0572 | – | 0.0641 | 0.0809 | 0.0664 | –
24 | H21L | 0.0711 | 0.0678 | – | – | 0.062 | 0.0396 | 0.0576 | 0.0619 | 0.0535 | 0.0703 | 0.0592 | 0.0556 | 0.0645 | 0.0609 | 0.0745 | – | 0.0563 | 0.0624
25 | H21R | 0.0681 | 0.0807 | 0.0482 | – | – | 0.0644 | 0.0776 | 0.0651 | 0.0713 | 0.0797 | – | 0.0368 | 0.0561 | 0.0506 | 0.0552 | – | 0.0523 | –
26 | T23H | 0.0681 | 0.0723 | – | – | 0.0661 | 0.075 | 0.0594 | 0.0673 | 0.0616 | 0.0611 | – | 0.0531 | 0.0622 | 0.0531 | – | – | 0.0676 | 0.0536
27 | T23V | 0.0987 | 0.0884 | – | – | 0.0756 | 0.0704 | 0.0747 | 0.0684 | 0.0684 | 0.0696 | 0.0688 | – | 0.064 | 0.0578 | 0.0666 | – | 0.0759 | –
